From the supplement of paper PMC4723716
Over roughly 3,600 compounds, “viability index relative to DMSO control” has its median near 0.81; the lowest 2% begin near 0.13. The list shows a part of the results.
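Also: 384-well serum-free SaLSSA: MitoTracker Red CMXRos staining with saponin lysis, high-content imaging, treated-well particle count divided by plate-mean count of DMSO wells.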

These molecules were tested on Plasmodium falciparum NF54 stage V gametocytes (assay: viability index relative to DMSO control (fraction); higher = less gametocyte killing). Details: 1.25 µM, incubation time: 72 h.
In the case of `CN(C)c1cc(NC(=O)Nc2ccccc2)c2ccccc2n1`, the viability index is reported as 1.44. `C=CCOC(=O)C1=C(C)N=C2SCCC(=O)N2C1c1ccc(OC(=O)c2ccco2)cc1` (stereo unspecified) showed a viability index of 0.896. In the case of `Cc1ccc(N(C)C(=O)CCNS(=O)(=O)c2cc(Br)cnc2N)cc1`, the viability index is reported as 1.06. For `CCN1CCN(c2ccc(Nc3c4ccccc4nc4ccccc34)cc2)CC1`, the viability index was 0.702. For `CCSc1nc2sc3c(c2c(=O)n1CC)CCN(C)C3`, the viability index was 1.01. In the case of `CC(=O)c1ccc2c3c(onc13)-c1ccccc1C2=O`, the viability index is reported as 0.698. `COC(=O)C1=CNC=C(C(=O)OC)C1c1cc(OC)c(OC)c(OC)c1` was tested, and the viability index was 0.789. For `Cc1ccc(C)c(N2CCN(CCCNC(=O)c3ccc(CSc4nc5cnccc5[nH]4)cc3)CC2)c1`, the viability index was 0.96. Molecule `CC(C)Cc1ccc(-c2csc(NC(=O)C3C4CCC(C4)C3C(=O)O)n2)cc1` (stereo unspecified) has a viability index of 1.21. In the case of `NC(=NOC(=O)c1ccccc1I)c1ccccn1`, the viability index is reported as 1.3. `Cc1cc(C)n(-c2cc(NN=Cc3cc(Br)ccc3O)nc(C)n2)n1` was tested, and the viability index was 0.656. `O=C(Nc1ccc(N2CCCCC2)cc1)N1CCc2nc[nH]c2C1c1ccc(Cl)cc1` (stereo unspecified) gave a viability index of 0.69. Molecule `COC(=O)C1=C(C)NC2=C(C(=O)CC(C)(C)C2)C1c1ccc(C)o1` (stereo unspecified) has a viability index of 0.502. For `O=C(Cn1cc([N+](=O)[O-])nc1[N+](=O)[O-])N1CCN(c2ccc(F)cc2)CC1`, the viability index was 0.411. `Cc1ccc(NC(=O)CSc2nc3cc(C(=O)NCCCOC(C)C)ccc3c(=O)n2Cc2ccco2)cc1Cl` was tested, and the viability index was 0.771. In the case of `CC(=O)Nc1ccc(NC2=CC(=NS(=O)(=O)c3ccccc3)c3ccccc3C2=O)cc1`, the viability index is reported as 0.398. In the case of `COc1ccc(C(NC(=O)c2cccc(OC)c2)c2cc(Cl)c3cccnc3c2O)cc1` (stereo unspecified), the viability index is reported as 0.804. In the case of `CCN(CC)C(=O)c1ccc2c(=O)n(Cc3cccc(Br)c3)c(=S)[nH]c2c1`, the viability index is reported as 1.02. `Cc1nc2sccn2c1-c1csc(Nc2ccccn2)n1` gave a viability index of 0.89. Molecule `CCOc1cccc2oc(=O)c(C(=O)Nc3cc(C(C)(C)C)on3)cc12` has a viability index of 0.664. `COc1cccc(C(=O)NCc2n[nH]c(=S)n2-c2ccc(Cl)c(Cl)c2)c1` gave a viability index of 0.453. `O=C(C1CC1)N1CCc2cc(Br)cc(S(=O)(=O)N3CCCCCC3)c21` gave a viability index of 0.803. In the case of `CCOC(=O)c1c[nH]c2ccc(OC)cc2c1=O`, the viability index is reported as 0.467. `CCC(Oc1ccc(C(C)(C)CC)cc1C(C)(C)CC)C(=O)Nc1ccc([N+](=O)[O-])cc1O` (stereo unspecified) gave a viability index of 0.626. `O=[N+]([O-])c1ccc(-c2csc(CO)n2)cc1` was tested, and the viability index was 1.4. With `CNc1nc(Cl)nc(Nc2ccccc2)n1` the viability index was 0.803. In the case of `CCOC(=O)C1(CC)CC(C)(C(=O)C[n+]2cccc(Br)c2)OC1=O` (stereo unspecified), the viability index is reported as 1.11. For `CCCN1CCN(C(=O)C(=O)Nc2ccc3nc4n(c(=O)c3c2)CCCCC4)CC1`, the viability index was 0.548. In the case of `O=C1CC(N2CCCCCC2)C(=O)N1c1ccc(N2C(=O)CC(N3CCCCCC3)C2=O)cc1` (stereo unspecified), the viability index is reported as 0.94. For `O=C(C1CCC1)N1CCOc2c(cc(-c3csc4ccccc34)cc2OCCc2ccccn2)C1`, the viability index was 0.413. `CCCc1ccc(OCc2nc(-c3ccc(NC(=O)c4cccs4)cc3)no2)cc1` gave a viability index of 1.02. `CCOCc1nnc(NC(=O)COc2ccc(Cl)cc2Cl)s1` showed a viability index of 0.808. Molecule `O=C(C(Cc1c[nH]c2ccccc12)NS(=O)(=O)c1ccc(Cl)cc1)N1CCCCC1` (stereo unspecified) has a viability index of 0.732. `C=CCc1cc(C=c2sc3n(c2=O)C(c2ccccc2)C(C(=O)OCC)=C(C)N=3)cc(OC)c1O` (stereo unspecified) gave a viability index of 0.77. `CCCN(CCC)C1=CC(=O)C(C(C)(C)C)=CC1=O` was tested, and the viability index was 0.656. For `CCN(CC)CCCN(Cc1cc2cc(OC)ccc2[nH]c1=O)C(=S)Nc1cccc(Cl)c1`, the viability index was 0.824. With `COC(=O)CS(=O)c1ccccc1` (stereo unspecified) the viability index was 1.44. With `Brc1ccc(-c2cn3c([n+]2-c2ccccc2)SCC3)cc1` the viability index was 0.678. In the case of `CCOC(=O)C1=C(C)NC2=C(C(=O)CC(c3ccc(OC)c(OC)c3)C2)C1c1ccccc1Br` (stereo unspecified), the viability index is reported as 0.517. Work on `FC(F)(F)c1cccc(C=NNc2nc3ccccc3[nH]2)c1` yielded a viability index of 0.984. For `Cc1ccc(Nc2nc(NN=Cc3ccc(-c4ccc([N+](=O)[O-])cc4)o3)nc(N3CCOCC3)n2)cc1Cl`, the viability index was 0.427. Work on `O=C(O)c1c(F)cccc1Cl` yielded a viability index of 0.817. Molecule `CCC1CCCCN1S(=O)(=O)c1cc(Br)cc2c1N(C(=O)C1CC1)CC2` (stereo unspecified) has a viability index of 0.831. Molecule `Fc1ccccc1CCNc1ncnc2c1[nH]c1ccccc12` has a viability index of 0.641. `COc1ccc(-c2c(C(F)(F)F)nn(C)c2NC(=O)Nc2ccc(F)cc2F)cc1` gave a viability index of 0.747. `CCCOC(=O)C1=C(C)NC2=C(C(=O)CC(c3ccc(OC)c(OC)c3)C2)C1c1ccc(Cl)c(Cl)c1` (stereo unspecified) showed a viability index of 1.2. Molecule `Cc1ccc(Cn2c(N3CCC(C(=O)NCc4cccs4)CC3)nc3ccccc32)cc1` has a viability index of 0.671. Work on `Cc1cccc(NC(=O)/C(C#N)=C/c2ccc(C)o2)c1` yielded a viability index of 0.83. `CCC(COC)NC(=O)c1cn(C2CCCCC2)cc(C(=O)NC(C)(C)C)c1=O` (stereo unspecified) gave a viability index of 0.856. With `COc1ccc(Cl)cc1NC(=S)NNC(=O)c1cccnc1` the viability index was 0.875. `CC(=O)N1c2ccc([N+](=O)[O-])cc2C(C)(c2ccccc2)CC1(C)C` (stereo unspecified) was tested, and the viability index was 0.968. With `O=C(NCCc1ccccc1)C1CCC(Cn2c(=S)[nH]c3ccccc3c2=O)CC1` (stereo unspecified) the viability index was 0.462. For `O=[N+]([O-])c1ccc(C=NN2CCN(Cc3ccccc3Cl)CC2)cc1`, the viability index was 0.986. Molecule `Cc1ccc(OCC(=O)Nc2cccc(-c3nc4ncccc4o3)c2)cc1C` has a viability index of 0.606. Work on `Cc1cc(N2CCCC2)nc2ccc(NC(=S)NCCN3CCc4ccccc4C3)cc12` yielded a viability index of 1.15. Molecule `CCCCc1c(C)nc2c(OC)cccc2c1O` has a viability index of 0.663. For `CC1CCc2c(sc(NC(=O)c3ccccc3F)c2C(=O)NCc2ccccc2)C1` (stereo unspecified), the viability index was 1.42. With `Oc1cccc(Nc2nc(NCc3ccco3)c3ccccc3n2)c1` the viability index was 0.595. `O=[N+]([O-])c1ccc(-n2ncc(-c3nc(-c4ccc(Cl)cc4)no3)c2C(F)(F)F)cc1` gave a viability index of 0.817. `CCOC(=O)C1=C(C(=O)OCC)SC(=C2C(=S)C(C)(C)N(C(=O)c3cccc(F)c3)c3cc(C)ccc32)S1` was tested, and the viability index was 0.71. `COc1ccc(OC(C)=O)c(C=NNC(=O)C(C)Oc2ccccc2Br)c1` (stereo unspecified) showed a viability index of 1.22. `COc1cccc(NC(=O)c2ccc3oc(=O)c(S(=O)(=O)c4ccccc4)cc3c2)c1` was tested, and the viability index was 1.02. With `OCc1nc2ccccc2n1CCOc1ccccc1` the viability index was 1.04. Molecule `CCN(CC)c1ccc(NC(=O)C2Cc3ccccc3CN2S(=O)(=O)c2ccc(F)cc2)cc1` (stereo unspecified) has a viability index of 1.1. For `C=CCN1CCN(C(c2ccccc2F)c2nnnn2Cc2ccco2)CC1` (stereo unspecified), the viability index was 0.928. `CC(C)Sc1nc2c(c(=O)n1Cc1ccco1)C1(CCCCC1)Cc1ccccc1-2` showed a viability index of 1.18. `Cc1ccc(C[n+]2cc(-c3ccc(F)cc3)n3c2CCC3)cc1` gave a viability index of 1.15. In the case of `Cc1ccnc(NC(c2ccc(Cl)cc2Cl)c2ccc3cccnc3c2O)c1` (stereo unspecified), the viability index is reported as 0.707. In the case of `CCOC(=O)c1cnc2ccc(CC)cc2c1O`, the viability index is reported as 0.713. Work on `COc1ccc(C(=O)ON=C(N)Cc2ccc(Cl)cc2Cl)cc1[N+](=O)[O-]` yielded a viability index of 0.846. `CCN1CCN(C(=O)CS(=O)(=O)Cc2nc(-c3cccc(OC)c3)oc2C)CC1` showed a viability index of 0.912. `O=C(NNc1nc2ccccc2nc1Cl)Nc1ccc(Cl)cc1` showed a viability index of 0.847. In the case of `N#Cc1c(NC(=O)CCl)c(C(=O)c2ccccc2)n2c1CCC2`, the viability index is reported as 0.78. In the case of `COc1cccc(-c2ccc(O)c(CNC3CCN(Cc4ccccc4)CC3)c2)n1`, the viability index is reported as 0.721. Molecule `Oc1ccc(-c2ccc3c(c2)OCO3)cc1CNCC1CC2C=CC1C21CC1` (stereo unspecified) has a viability index of 0.712. Molecule `COC(=O)c1ccc(C(=O)Nc2ccc(-c3nc4cc(NC(=O)c5ccc(C(=O)OC)cc5)ccc4[nH]3)cc2)cc1` has a viability index of 0.946. `Cc1cc(C)n2nc(-c3ccc(Cl)cc3)cc2n1` was tested, and the viability index was 0.672. `N=c1c2ccccc2nnn1-c1ccc(C(F)(F)F)cc1` gave a viability index of 0.742. For `COc1c2occc2c(OC)c2c(=O)cc(C(Cl)(Cl)Cl)oc12`, the viability index was 0.751. `CCOC(=O)c1c(CSc2ccccc2)oc2cc(CN(C)C)c(O)c(Cl)c12` gave a viability index of 0.293. For `O=C(CN1CCN(C(=O)c2ccccc2)CC1)Nc1ccc(-c2nc3cc(NC(=O)CN4CCN(C(=O)c5ccccc5)CC4)ccc3o2)cc1`, the viability index was 0.951. `O=[N+]([O-])c1cccc(CNc2ccc(F)c(Cl)c2)c1` gave a viability index of 1.13. In the case of `C=CC[n+]1c(C=C2C=CC=CN2C)sc2ccccc21`, the viability index is reported as 0.938. In the case of `COc1ccc(CC(=O)Nc2sc3c(c2C(=O)Nc2cccc4ccccc24)CCCC3)cc1`, the viability index is reported as 0.77. `Cc1cc(Nc2cccc(C(F)(F)F)c2)nc(NCc2ccccc2)n1` was tested, and the viability index was 0.69. `OC(COc1ccc(OCC(O)CN2CCN(C3c4ccccc4-c4ccccc43)CC2)cc1)CN1CCN(C2c3ccccc3-c3ccccc32)CC1` (stereo unspecified) showed a viability index of 0.754. Molecule `C=CC[n+]1cccc2c3ccccc3ccc21` has a viability index of 0.706. In the case of `CCOc1ccc2nc(C)cc(Nc3cccc(O)c3)c2c1`, the viability index is reported as 0.923. `COc1ccc(-c2c[n+](CC(=O)O[C@H]3C[C@H](C)CC[C@@H]3C(C)C)c3n2CCCCC3)cc1` gave a viability index of 1.03. Work on `CCn1c2ccccc2[n+]2c(C)cc(C)nc12` yielded a viability index of 0.848. In the case of `C(=Nc1cnc2ccccc2c1)c1c2n(c3ccccc13)CCCN2`, the viability index is reported as 0.615.
